Hit rate of the full screen: of about 390,000 compounds, about 1,400 (0.36%) were called active. Inconclusive means that the source gave no clear call. Such entries were picked first, then a sample of the others. Calls come from the whole dose curve; as a rule, active = well fitted inhibition curve with a large enough effect; inconclusive = small, poorly fitted or top-dose-only effect; inactive = no such curve, though single readings can be large or run the other way. A potency beside an inconclusive call is a rough fit, not a confirmed value.
Each compound was assayed against Flap endonuclease 1 (Homo sapiens) (UniProt P39748) (assay: qHTS Assay for the Inhibitors of Human Flap endonuclease 1 (FEN1).). Settings: Recombinant FEN1 flap cleavage, fluorescence, 15 min; series mostly up to 114 µM; activity change, negative = inhibition: at the top concentration.
UniProt P39748, sequence (P39748 whole entry, looked up): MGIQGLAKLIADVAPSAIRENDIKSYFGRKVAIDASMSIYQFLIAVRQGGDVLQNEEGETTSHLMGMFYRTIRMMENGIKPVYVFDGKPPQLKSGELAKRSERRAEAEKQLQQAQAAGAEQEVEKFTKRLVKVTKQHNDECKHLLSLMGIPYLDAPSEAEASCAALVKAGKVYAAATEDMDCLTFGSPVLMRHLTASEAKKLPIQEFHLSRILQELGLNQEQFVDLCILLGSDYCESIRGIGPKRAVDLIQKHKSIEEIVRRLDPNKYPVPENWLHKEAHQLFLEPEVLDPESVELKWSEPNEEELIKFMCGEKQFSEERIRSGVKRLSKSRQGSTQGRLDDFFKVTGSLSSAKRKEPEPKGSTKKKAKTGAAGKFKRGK
Procedure, shortened: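 FEN1 at 10 nM preincubated with compounds 15 min at room temperature, then flap DNA substrate added at 50 nM final. Signal read at 0 and 15 min; concentration-response fitted with four-parameter Hill equation.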
For `CCOc1ccc(Nc2n[nH]c(=S)s2)cc1`, the “activity change, negative = inhibition” value was inactive: -4.37%.
`Cc1cc(C)c2c(=O)c(C#N)coc2c1` was tested, and the Potency was inconclusive: 79.4 µM [inhibitor, partial curve].
In the case of `COc1ccc(NC(=O)Nc2ccc(OCc3ccccc3)cc2)cn1`, the “activity change, negative = inhibition” value is reported as inactive: -5.29%.
With `CCN(CCCNC(=O)CNC(=O)c1nn(-c2ccc(OC)cc2)c(=O)c2ccccc12)c1cccc(C)c1` the “activity change, negative = inhibition” value was inactive: -9.36%.
`C/C(O)=c1/ccc2cccc3nc(C)nc1c23` was tested, and the Potency was inconclusive: 25.1 µM [inhibitor, full curve].
In the case of `O=C(CSc1nnc(-c2n[nH]c3ccccc23)n1-c1ccccc1)Nc1ccccc1Cl`, the Potency is reported as inconclusive: 70.8 µM [inhibitor, partial curve, poor fit].
`Cc1c2cnn(CC(=O)Nc3c(F)c(F)cc(F)c3F)c(=O)c2c(C)n1Cc1ccccc1F` was tested, and the Potency was active: 79.4 µM.
In the case of `Cc1cc(C)n(-c2nnc(C)n2/N=C/c2cc(Br)ccc2OCc2ccccc2)n1`, the Potency is reported as inconclusive: 89.1 µM [inhibitor, partial curve, poor fit].
`Cc1cc(/C=C(\C#N)C(=O)O)c(C)n1CC1CCCO1` (centres undefined) was tested, and the Potency was inconclusive: 89.1 µM [inhibitor, single point].
With `COC(=O)c1cc(NC(=O)c2cc(C(C)(C)C)nn2Cc2cccc(C)c2)ccc1N1CCOCC1` the Potency was inconclusive: 31.6 µM [inhibitor, partial curve, poor fit].
With `Clc1ccc(-c2csc(-c3nc(-c4ccc(Br)s4)cs3)n2)cc1` the “activity change, negative = inhibition” value was inactive: 20.6%.
`COc1cc(/C=C2/C(=O)NN(c3ccc(Cl)c(Cl)c3)C2=O)cc([N+](=O)[O-])c1O` was tested, and the Potency was inconclusive: 35.5 µM [inhibitor, partial curve].
With `COc1ccc(Nc2nnc(-c3ccc(C)c(S(=O)(=O)NCc4nc5ccccc5[nH]4)c3)c3ccccc23)cc1` the “activity change, negative = inhibition” value was inactive: 14.3%.
In the case of `CCCCCCCCCCCC(=O)NC(C(=O)OCC)C(O)c1cccc([N+](=O)[O-])c1` (centres undefined), the Potency is reported as inconclusive: 56.2 µM [inhibitor, partial curve, poor fit].
With `CC(C)(C)C(=O)c1cnc(Nc2ccccc2Cl)s1` the Potency was inconclusive: 56.2 µM [inhibitor, partial curve, poor fit].
With `CCc1ccc(/C=C2/SC(N3CCOCC3)=NC2=O)cc1` the “activity change, negative = inhibition” value was inactive: 4.38%.
`CCCCCCCNc1ccc(/C=C/c2ccnc3ccccc23)cc1` was tested, and the Potency was inconclusive: 35.5 µM [inhibitor, partial curve, poor fit].
With `CCOC(=O)c1sc2nc3c(SCC(=O)O)cc(C(=O)c4ccccc4O)cn3c(=O)c2c1C` the Potency was inconclusive: 31.6 µM [inhibitor, partial curve, poor fit].
With `COc1cc(/C=N/Nc2nc3ccccc3[nH]2)cc(OC)c1O` the Potency was inconclusive: 79.4 µM [inhibitor, partial curve, poor fit].
With `COC(=O)Cc1cc(C)cc2c(=O)cc(-c3ccoc3)oc12` the “activity change, negative = inhibition” value was inactive: 3.18%.
For `Cc1nc(-c2cccc(NC(=O)C(C)Oc3ccccc3)c2)cs1` (centres undefined), the “activity change, negative = inhibition” value was inactive: -5.74%.
For `O=C(CSc1nc(-c2ccccc2)nc2ccc(F)cc12)Nc1cccc(C(=O)O)c1`, the Potency was inconclusive: 79.4 µM [inhibitor, partial curve].
In the case of `O=C1NC(=S)S/C1=C\c1ccc(SCc2ccco2)o1`, the Potency is reported as inconclusive: 7.08 µM [inhibitor, full curve, poor fit].
In the case of `C=CCc1cccc(CNc2nc3ccccc3n2C(C)C)c1O`, the Potency is reported as inconclusive: 39.8 µM [inhibitor, partial curve, poor fit].
For `O=C(NN=c1c(=O)c2ccccc2c1=O)c1ccccc1`, the Potency was inconclusive: 89.1 µM [inhibitor, partial curve, poor fit].
`C=CCn1c(C)cc(-c2csc(N)n2)c1C` was tested, and the Potency was inconclusive: 100 µM [inhibitor, partial curve, poor fit].
`Cc1nnc(N/N=C/c2ccccc2C(F)(F)F)n1N` was tested, and the Potency was inconclusive: 20 µM [inhibitor, single point].
With `Brc1ccc2ncnc(Nc3ccc(N4CCOCC4)cc3)c2c1` the Potency was inconclusive: 50.1 µM [inhibitor, partial curve, poor fit].
`Cn1ccc2cc(NC(=O)Nc3cccnc3)ccc21` was tested, and the Potency was inconclusive: 89.1 µM [inhibitor, partial curve, poor fit].
With `O=C(NCc1ccc(F)cc1)c1cc2cccc3c2n1CCS3` the Potency was inconclusive: 79.4 µM [inhibitor, partial curve, poor fit].
For `CNc1nc(Cl)c(SC)c(NCc2cccc(OC)c2)n1`, the “activity change, negative = inhibition” value was inactive: -18.6%.
For `O=CC(=O)c1ccc(Cl)cc1`, the “activity change, negative = inhibition” value was inactive: 6.87%.
For `Cc1ccc(N2CCN(C(=S)c3ccc(-c4cccc([N+](=O)[O-])c4)o3)CC2)cc1`, the “activity change, negative = inhibition” value was inactive: -13.1%.
`N=C1S/C(=C\c2ccc(O)cc2)C(=O)N1c1ccc(F)cc1` was tested, and the Potency was inconclusive: 79.4 µM [inhibitor, partial curve, poor fit].
With `CCCOC(=O)c1ccc(Oc2c(-c3ccc(OC)cc3O)n[nH]c2C)cc1` the Potency was inconclusive: 56.2 µM [inhibitor, partial curve, poor fit].
`Brc1ccc(Nc2c3c(nc4nncn24)CCC3)cc1` was tested, and the “activity change, negative = inhibition” value was inactive: -8.04%.
For `Cc1ccc(C(=O)Nc2ccc(-c3nc4ccccc4o3)cc2)cc1Cl`, the “activity change, negative = inhibition” value was inactive: -4.04%.
For `COc1cc(OC)c(/C=C/c2ccc3ccccc3n2)c(OC)c1`, the Potency was inconclusive: 56.2 µM [inhibitor, partial curve, poor fit].
`COc1ccccc1/C(C)=N/NC(=S)NCc1ccccc1` was tested, and the Potency was inconclusive: 50.1 µM [inhibitor, partial curve, poor fit].
`O=C(Cn1nnc2sc3c(c2c1=O)CCCC3)Nc1ccc(F)c(Cl)c1` was tested, and the Potency was inconclusive: 89.1 µM [inhibitor, partial curve, poor fit].
In the case of `CC(/C=N/Nc1ccc2nncn2n1)=C\c1ccccc1`, the Potency is reported as inconclusive: 79.4 µM [inhibitor, single point].
For `CN(C)c1ccc(/C=C/c2sc3ccccc3[n+]2Cc2ccccc2)cc1`, the Potency was inconclusive: 56.2 µM [inhibitor, partial curve, poor fit].
With `CC(=O)NN1C(=O)/C(=C\c2ccc(Br)o2)SC1=S` the “activity change, negative = inhibition” value was inactive: -13.7%.
For `Cc1ccc(C(=O)NCc2ccccn2)cc1NC1=NC2CS(=O)(=O)CC2S1` (centres undefined), the “activity change, negative = inhibition” value was inactive: 0.116%.
% is set by controls: 0 for no effect and ±100 for the full control effect; potency is the fitted concentration of half-maximal effect; tags give direction and shape of the fitted curve.
Note: nearly all actives have a fitted effect of over 65% in size.
